{
  "source": "PubChem BioAssay (Tox21)",
  "note": "Values joined by “and” are separate entries in the source; they are usually repeats but may differ in a detail not shown here. Equal entries are not always repeated. Inconclusive results, whose numbers are uncertain, are shown with a selection of clear calls. Where the call is inconclusive, the potency comes from a doubtful curve fit. More than one record can exist for a structure, and the calls need not agree. Active and inactive are the calls of the source. Calls follow the shape of the dose curve; as a rule, active = well fitted cell-killing curve with a large enough effect in the repeat runs; inconclusive = weak or mixed curves, or effect the other way; inactive = no such curve, though single readings can be large or run the other way. Potency is read from the fitted curve at half-maximal effect; tags tell the direction and shape of the fitted curve.",
  "data": [
    {"assay": "qHTS assay to identify small molecule antagonists of the retinoid-related orphan receptor gamma (ROR-gamma) signaling pathway - cell viability counter screen (AID 1159520); also: nearly all actives have a fitted effect of over 50% in size", "conditions": "Tet-on RORgamma CHO cells viability, ATP luminescence, 16 h; series mostly up to 92.4 µM", "outline": "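Tet-on ROR gamma CHO cells (1,000/well) were plated 4 hr, given compounds in DMSO for 2 hr at 37 C, then induced with 1 uM final doxycycline for 16 hr. Viability was read as ATP by CellTiter-Glo luminescence after 30 min.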", "values": [
      {"smiles": "C=CC(=O)OCC(CO)(COC(=O)C=C)COC(=O)C=C", "Potency": "inconclusive: 3.07 µM [cytotoxic, full curve, poor fit] and inconclusive: 6.11 µM [cytotoxic, full curve, poor fit]"},
      {"smiles": "Oc1ccc(Cl)cc1Sc1cc(Cl)ccc1O", "Potency": "inconclusive: 38.5 µM [cytotoxic, partial curve] and inconclusive: 26.6 µM [cytotoxic, partial curve]"},
      {"smiles": "CC/C(=C(/CC)c1ccc(O)cc1)c1ccc(O)cc1", "Potency": "inconclusive: 38.3 µM [cytotoxic, partial curve]"},
      {"smiles": "Nc1c2ccccc2nc2ccccc12", "Potency": "inconclusive: 26.9 µM [cytotoxic] and inconclusive: 33.5 µM [cytotoxic, single point]"},
      {"smiles": "Nc1nc(=S)c2[nH]cnc2[nH]1", "Potency": "inconclusive: 8.42 µM [cytotoxic, full curve] and inconclusive: 4.86 µM [cytotoxic, full curve] and inconclusive: 9.44 µM [cytotoxic, partial curve, poor fit]"},
      {"smiles": "O=Cc1ccccc1C=O", "Potency": "active: 7.7 µM"},
      {"smiles": "C=CCc1ccc(OC)c(OC)c1", "Potency": "inactive"},
      {"smiles": "COC(=O)[C@H]1[C@H]2C[C@@H]3c4[nH]c5cc(OC)ccc5c4CCN3C[C@H]2C[C@@H](OC(=O)c2cc(OC)c(OC)c(OC)c2)[C@@H]1OC", "Potency": "inconclusive: 68.5 µM [cytotoxic] and inconclusive: 56 µM [cytotoxic, single point]"},
      {"smiles": "c1c[nH]cn1", "Potency": "inactive"},
      {"smiles": "C=C[C@@]1(C)CC(=O)[C@]2(O)[C@@]3(C)[C@@H](O)CCC(C)(C)[C@@H]3[C@H](O)[C@H](OC(C)=O)[C@@]2(C)O1", "Potency": "inconclusive: 30.6 µM [cytotoxic, partial curve, poor fit]"}
    ]}
  ]
}
